Assay results taken from a collection of fitness landscapes (doi:10.1016/j.celrep.2020.107928).
Over roughly 81,000 sequences, “one-hybrid fitness for binding parS DNA” has its median near -0.17; the highest 2% begin near 0.51. This is one part of the list.

B1: Caulobacter ParB omega fusion; a variant is named by its letters at X, in order, B8GW30 (parent)
chain: MESVVVGEPGMSEGRRGLGRGLSALLGEVDAAPAQAPGEQLGGSREAPIEILQRNPDQPRRTFREEDLEDLSNSIREKGVLQPILVRPSPDTAGEYQIVAGERAWRAAQRAGLKTVPIMVRELDDLAVLEIGIIENVQRADLNVLEEALSYKVLMEKFERTQENIAQTIGKSXSHVANXMRLLXLPDEVQSYLVSGELTAXHARAIAAAADPVALAKQIIEGGLSVRETEALARKAPNLSAGKSKGGRPPRVKDTDTQALESDLSSVLGLDVSIDHRGSTGTLTITYATLEQLDDLCNRLTRGI

Variants of: B1
Test: one-hybrid fitness for binding parS DNA (scaled: cognate 1, non-cognate 0); higher = stronger binding
Details: with parS DNA site
Outline: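 Caulobacter ParB libraries with four specificity codons randomised were screened by bacterial one-hybrid selection in the E. coli USO strain, using a HIS3 reporter whose site lies 19 bp from the promoter. Selection ran for 48 hours at 37°C on M9 lacking histidine, with 0.1 mM IPTG and 5 mM 3-AT. Plasmids were Illumina-sequenced before and after selection, three replicate libraries were pooled, and variants with under 10 reads were dropped. Fitness is the log change in each variant's read ratio to wild type, rescaled against the cognate and non-cognate sites.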

Variant	one-hybrid fitness for binding parS DNA
KRMF	≤ 0.2
KDHT	≤ 0.2
TPKN	≤ 0.2
FGKR	≤ 0.2
PADY	≤ 0.2
SSVF	≤ 0.2
TLCN	≤ 0.2
HDNG	≤ 0.2
IMNR	≤ 0.2
SHKF	≤ 0.2
PQCN	≤ 0.2
TMPW	≤ 0.2
RRMH	≤ 0.2
QNMS	≤ 0.2
NESR	≤ 0.2
EGKC	≤ 0.2
HLRY	≤ 0.2
EGPF	≤ 0.2
FFVS	≤ 0.2
ISEC	≤ 0.2
QTHF	≤ 0.2
YRKK	≤ 0.2
GALN	≤ 0.2
FMIR	≤ 0.2
HDTN	≤ 0.2

Variant	one-hybrid fitness for binding parS DNA
GFSS	≤ 0.2
ESRA	≤ 0.2
DQYR	≤ 0.2
SGVA	≤ 0.2
SHIK	≤ 0.2
FDRF	≤ 0.2
RCHI	≤ 0.2
RHWP	≤ 0.2
TIDC	≤ 0.2
TPAT	≤ 0.2
APRC	≤ 0.2
CFTY	≤ 0.2
WSRY	≤ 0.2
EPQG	≤ 0.2
KKMS	≤ 0.2
NHMG	≤ 0.2
GGVS	≤ 0.2
SGSW	≤ 0.2
RGAQ	≤ 0.2
CPQS	≤ 0.2
RHGC	0.896
WVIS	≤ 0.2
GHGR	≤ 0.2
KLHK	≤ 0.2
MCWG	≤ 0.2

Variant	one-hybrid fitness for binding parS DNA
NPRH	≤ 0.2
PMKI	≤ 0.2
CRYL	≤ 0.2
NRQL	≤ 0.2
VAAI	≤ 0.2
KMRV	≤ 0.2
NVRA	≤ 0.2
DGPL	≤ 0.2
VPPY	≤ 0.2
WVQL	≤ 0.2
PLLY	≤ 0.2
MEAY	≤ 0.2
TTMQ	≤ 0.2
TSYR	≤ 0.2
RDGK	≤ 0.2
TEQY	≤ 0.2
WMRR	≤ 0.2
DPNT	≤ 0.2
RAWF	0.245
RRLS	0.701
CVPF	≤ 0.2
VSLI	≤ 0.2
INNL	≤ 0.2
WDKG	≤ 0.2
NFKT	≤ 0.2

Variant	one-hybrid fitness for binding parS DNA
LLSG	≤ 0.2
AIAV	≤ 0.2
CEMR	≤ 0.2
TFYV	≤ 0.2
RVKL	≤ 0.2
AWQR	≤ 0.2
FVQV	≤ 0.2
NEFY	≤ 0.2
KANV	≤ 0.2
MFRY	≤ 0.2
RIIW	0.206
RHDN	0.33
NHCR	≤ 0.2
GHLY	≤ 0.2
AQKW	≤ 0.2
QYSW	≤ 0.2
PLSK	≤ 0.2
MPVC	≤ 0.2
RCTI	≤ 0.2
LAQK	≤ 0.2
GRHS	≤ 0.2
LVRL	≤ 0.2
FAPL	≤ 0.2
ANMG	≤ 0.2
FQAL	≤ 0.2

Variant	one-hybrid fitness for binding parS DNA
TQQM	≤ 0.2
VNYL	≤ 0.2
QRLH	≤ 0.2
WHPD	≤ 0.2
EEDR	≤ 0.2
TSQL	≤ 0.2
SNEF	≤ 0.2
CNVC	≤ 0.2
CTIF	≤ 0.2
YRVR	≤ 0.2
RGLD	≤ 0.2
HRIL	≤ 0.2
KPWG	≤ 0.2
FLGR	≤ 0.2
LRVI	≤ 0.2
LFPL	≤ 0.2
AGFT	≤ 0.2
YGKR	≤ 0.2
PYRA	≤ 0.2
LMAA	≤ 0.2
GETW	≤ 0.2
PRQL	≤ 0.2
KIIG	≤ 0.2
RSLS	1.01
YMLC	≤ 0.2

Variant	one-hybrid fitness for binding parS DNA
TTCV	≤ 0.2
GCMT	≤ 0.2
NTWS	≤ 0.2
RACC	0.962
GGLR	≤ 0.2
AMTY	≤ 0.2
KEEV	≤ 0.2
SAEF	≤ 0.2
FNAC	≤ 0.2
ARDS	≤ 0.2
DHPV	≤ 0.2
RFPT	0.376
KMKK	≤ 0.2
TCFD	≤ 0.2
RNMA	0.47
DLYF	≤ 0.2
KHTS	≤ 0.2
DSQT	≤ 0.2
CEYR	≤ 0.2
VNFG	≤ 0.2
PPYV	≤ 0.2
LWPI	≤ 0.2
HNML	≤ 0.2
PRKP	≤ 0.2
HKNR	≤ 0.2

Variant	one-hybrid fitness for binding parS DNA
PVFL	≤ 0.2
FNHS	≤ 0.2
EHAS	≤ 0.2
RIGV	≤ 0.2
WVKR	≤ 0.2
NCQS	≤ 0.2
TNEW	≤ 0.2
GMNG	≤ 0.2
FRPF	≤ 0.2
RRIY	0.332
LICE	≤ 0.2
QERI	≤ 0.2
QTED	≤ 0.2
QRHG	≤ 0.2
SPYV	≤ 0.2
FRPT	≤ 0.2
QSCN	≤ 0.2
RVGE	≤ 0.2
RWKL	≤ 0.2
CQRS	≤ 0.2
HNTG	≤ 0.2
WDSS	≤ 0.2
DVHV	≤ 0.2
RMDT	0.794
QKLM	≤ 0.2

Variant	one-hybrid fitness for binding parS DNA
ETLL	≤ 0.2
RWSR	≤ 0.2
SVPD	≤ 0.2
WDTG	≤ 0.2
CTFF	≤ 0.2
TLGV	≤ 0.2
LQWY	≤ 0.2
IAMC	≤ 0.2
NTFC	≤ 0.2
RTWP	0.271
RMHG	1.01
IPHS	≤ 0.2
TTKC	≤ 0.2
FTQS	≤ 0.2
KYPC	≤ 0.2
SLLT	≤ 0.2
DIRS	≤ 0.2
YAGC	≤ 0.2
ADRG	≤ 0.2
RYRR	≤ 0.2
